Data reported in the supplement of paper PMC3334620.
Whole data set: some 33,000 sequences, median “E-score (-0.5 to 0.5)” near -0.054, cut for the highest 2% near 0.35. This is one part of the list.

The sequences below were run against T1, Stb5 (UniProt P38699) (assay: PBM E-score (8-mer binding enrichment) (E-score (-0.5 to 0.5)); higher = stronger / more preferred TF binding; most listed sequences are background and not binding sites). Conditions: protein concentration: 200 nM; construct: GST-full length.
T1 sequence: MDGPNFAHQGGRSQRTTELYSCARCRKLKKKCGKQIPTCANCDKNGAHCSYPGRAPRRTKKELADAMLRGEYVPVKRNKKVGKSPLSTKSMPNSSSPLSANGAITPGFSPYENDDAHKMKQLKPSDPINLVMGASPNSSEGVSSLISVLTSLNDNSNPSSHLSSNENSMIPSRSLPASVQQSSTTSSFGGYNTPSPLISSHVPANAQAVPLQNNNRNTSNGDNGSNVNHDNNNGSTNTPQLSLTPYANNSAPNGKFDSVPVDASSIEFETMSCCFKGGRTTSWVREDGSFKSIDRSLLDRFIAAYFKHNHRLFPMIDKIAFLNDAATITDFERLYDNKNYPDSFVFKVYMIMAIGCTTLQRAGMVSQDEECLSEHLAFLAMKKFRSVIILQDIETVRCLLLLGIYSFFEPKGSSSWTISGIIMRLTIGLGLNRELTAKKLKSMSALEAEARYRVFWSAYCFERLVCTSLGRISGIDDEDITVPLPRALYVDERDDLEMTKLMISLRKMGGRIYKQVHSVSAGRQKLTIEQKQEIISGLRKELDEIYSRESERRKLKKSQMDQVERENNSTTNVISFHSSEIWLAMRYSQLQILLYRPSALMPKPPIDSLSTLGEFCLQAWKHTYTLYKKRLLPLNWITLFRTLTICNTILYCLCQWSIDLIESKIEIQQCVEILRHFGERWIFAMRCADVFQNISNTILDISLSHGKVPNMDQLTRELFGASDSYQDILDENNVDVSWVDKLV
Summary of the method: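 Using PURExpress in vitro transcription/translation, GST-tagged yeast transcription factors were made in full-length or DNA-binding-domain form. These were applied at about 100-200 nM to double-stranded universal all-10-mer Agilent arrays, and bound protein was detected with fluorescent anti-GST. Scans were normalised with masliner before the Universal PBM Analysis Suite assigned E-scores to ungapped eight-base words pooled with their reverse complements.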

Sequence | PBM E-score
CAAACTGG | -0.105
GCAGTAGC | -0.0598
CACCCTCG | -0.0941
AACGAATA | -0.0787
ACGGGGAT | 0.415
CTTGGGTC | -0.144
AGGCAATA | -0.0408
TTGGAAAA | -0.0399
ACGCAGAC | -0.175
ATGGGTGG | -0.168
ACCGTTCA | 0.27
ATGTGACG | -0.235
GTGCAAGA | -0.00269
ATTATTCC | 0.191
ACTCACAT | -0.228
GCCCGCCC | 0.271
CACAGTAA | -0.113
GTTAACCA | -0.181
GAAAGTGC | 0.022
GCTGAGCA | -0.169
GAGCGACA | -0.14
CTTTAAGA | 0.0831
GACCTGTA | -0.0228
CCAATAAA | 0.0325
AGTAGCGA | -0.0721

Sequence | PBM E-score
AGTCCGGA | 0.39
GGAAGCTA | -0.285
CTGGTTGA | -0.299
CACCACGA | -0.122
AGACACAG | -0.276
ACGGCATG | 0.242
CAGTATGA | -0.12
CGGTATGC | 0.00802
AAAATAAT | 0.0133
CTCGATAA | -0.1
AAAAGAAC | -0.0657
AGACACAT | 0.0617
CCCCGTCG | 0.313
ACATTTGG | -0.005
GTAGCTGA | -0.219
CGAAGGTA | 0.0558
GCACAGAC | 0.0491
ATAAAGGA | 0.127
CAGAGGCG | 0.0222
TAGTTACA | -0.0984
AAGTGAAT | -0.0291
CAGTCTTC | -0.217
GTCCGGAC | 0.348
CACCCGGC | 0.0834
CTCGCCAG | -0.09

Sequence | PBM E-score
AGAATGAC | -0.191
ACCTCAGG | -0.252
ACTCGCTG | -0.0554
GTTCCAAC | 0.147
ACCAATCG | -0.0464
CACTCGAA | -0.167
AGGGAGGG | 0.0331
GGCTATCA | -0.138
AGAGGGAT | -0.33
AGTAGTGA | -0.187
CTCTACCA | 0.0166
GCGGACAA | 0.309
AGTATGCA | -0.0573
AAGAGTTG | -0.19
GGATATGA | 0.0322
CGGAAGAG | 0.00942
ACCTACGG | 0.214
AAAAATAC | 0.0585
ACAAACTC | 0.0471
CTCTCGAA | -0.298
GTGAACTA | -0.107
TGCCGCCA | 0.283
GAAGGAAC | -0.0292
AATCAGAT | -0.134
AAGTCGGA | 0.274

Sequence | PBM E-score
AACTAGAC | 0.0858
CGTATACG | 0.0927
AGCTCGAG | -0.106
GAGCGCAC | 0.141
GTCATATA | 0.0314
ATCAGGCC | 0.0958
GAATTTCC | 0.00787
ACGTGACC | -0.0533
GTGAGAGA | -0.127
CAAAGACC | 0.192
GATGGACA | 0.133
CACCCATA | -0.0963
GAATCGGC | 0.212
GTTCAAAA | -0.0289
CCAGGTTA | -0.102
ACACCTCA | -0.283
ACCGGCTC | 0.213
ATAACTAG | 0.0581
GACGCACA | 0.0925
ACCCTGAG | -0.163
CTATGATC | -0.00672
TCCGAAAA | 0.142
ACTCTCGG | 0.14
CACTGGCC | -0.234
CTCCGCAA | 0.123

Sequence | PBM E-score
CCATTAAA | 0.0322
CGTTTATA | 0.13
AGAAGATA | -0.0181
CTTCCGGC | 0.0896
CCTCGAGG | -0.326
CGATACTA | 0.0932
CACTATCG | -0.0292
TGATGGCA | -0.257
ATGATTGC | -0.104
AGCTTCGG | 0.196
AGGGGTGC | -0.119
CATCTGAG | -0.0382
GATAAGCA | 0.0636
ACGCAGCA | -0.17
AGGCACAC | -0.203
CTGCGCTA | 0.0203
GCCGGAGA | 0.231
CCATGACG | 0.0201
AGACGAGC | -0.248
GCCTCCAA | 0.0176
CTAAAATC | -0.105
TGAAATAA | 0.0137
GCTTTTAA | 0.161
TCGCGAAA | 0.0883
TACGAGAA | 0.022

Sequence | PBM E-score
CCGCATCG | 0.252
GTGGTACA | -0.142
CGCGTGAC | 0.0187
AACAGGAG | -0.14
CGACATCC | 0.0432
AGATTTCC | -0.133
ACGTTCTA | -0.247
AAGGCAAA | -0.363
CAACGGGA | 0.146
ACCGCTTG | 0.276
AGTAGAAT | -0.323
CTGGTCTA | -0.205
GCCGACTA | 0.253
AGATTAGA | -0.075
AAGTTCGT | -0.0622
GAGCTGCA | -0.148
ATGATTCA | -0.185
CCGTCATC | 0.257
CGCGCCCC | 0.107
ATGACCTA | -0.0724
ACTAATCT | 0.0682
ACACGATC | -0.082
CATCCGCC | 0.271
AGGCTGGA | -0.199
CTTTATAC | 0.209

Sequence | PBM E-score
CAGACTCC | 0.0827
CGCCAGAC | -0.0322
ACAAGTAA | -0.193
GAATACCC | 0.115
GCAATACC | 0.175
AGGACAAC | -0.138
GCGACCTA | -0.189
GCTGGTGA | -0.201
CCTAAGCG | 0.0828
GAAATTTA | -0.097
ATAAAAGG | 0.0585
GGAAAGAC | -0.0533
TCTATTAA | -0.042
AGTCCAAG | -0.252
ACGATATA | -0.0812
CACAGAAG | -0.0722
CCTCCAAC | -0.199
TCATCCGA | 0.157
TAGCAGCA | -0.233
CCGACGCG | 0.378
ATATAAGC | -0.0284
TAATGGGA | -0.263
ACATGCTC | -0.203
CCGTGCCA | 0.1
GGCAAAAC | 0.189

Sequence | PBM E-score
CACGAAAC | -0.0143
CAATTGTC | -0.0888
ACACTACG | -0.0636
GCATTGTA | -0.0321
GACTTATA | 0.289
ATCTCGGA | 0.184
AGTGTCGA | -0.0288
GGCGACGA | -0.308
TTCATAAA | -0.0475
ACAGGAAC | -0.149
CGGGCTTC | 0.293
AAATGCGA | -0.0217
ACGTGGCA | -0.105
ACCCACGG | 0.103
AGGTTGTA | -0.076
CCGCCTCG | 0.214
GCTGTGAC | -0.137
ACGACTAC | -0.236
ATCCTCCA | -0.256
CTATAGGA | 0.0341
TCTGTTCA | -0.178
CAACAGTG | -0.0346
ACACCCCA | -0.176
CTACTACA | 0.035
GAATTATA | 0.198

Sequence | PBM E-score
ACTATGAG | -0.18
CGATTGAG | -0.00869
GGAAGAAC | 0.0177
AATGTCGA | -0.17
AGGAGTCA | -0.194
CGACGACA | -0.07
ACCACGGC | 0.0232
CGTTCGAG | -0.0409
AGTTCAGC | -0.299
ATGAAGTA | -0.0605
TAAAAATA | 0.124
CCTCACAA | -0.117
AATCTCGT | -0.0289
GAATATAC | 0.106
CGATTGGA | 0.0362
GTCGTCAA | -0.136
CAAGGACA | -0.26
AACAACAG | -0.158
AATCGACG | -0.145
